From PubChem BioAssay AID504332 (National Center for Advancing Translational Sciences (NCATS), 2011)
Among all 350,000 compounds or so, about 31,000 (8.9%) were called active. Inconclusive results, whose numbers are uncertain, are shown with a selection of clear calls. Calls follow the shape of the dose curve; as a rule, active = well fitted inhibition curve with a large enough effect; inconclusive = small, poorly fitted or top-dose-only effect; inactive = no such curve, though single readings can be large or run the other way. Potencies beside an inconclusive call are fits to weak or partial responses and may not hold up.

Each molecule was assayed against Histone-lysine N-methyltransferase EHMT2 (Homo sapiens) (UniProt Q96KQ7) (assay: qHTS Assay for Inhibitors of Histone Lysine Methyltransferase G9a). Settings: G9a H3K9 monomethylation, AlphaScreen, 2 h; activity, negative = inhibition: at 59 µM (top of the series) unless noted.
Chain of UniProt Q96KQ7 (Q96KQ7 whole entry, looked up): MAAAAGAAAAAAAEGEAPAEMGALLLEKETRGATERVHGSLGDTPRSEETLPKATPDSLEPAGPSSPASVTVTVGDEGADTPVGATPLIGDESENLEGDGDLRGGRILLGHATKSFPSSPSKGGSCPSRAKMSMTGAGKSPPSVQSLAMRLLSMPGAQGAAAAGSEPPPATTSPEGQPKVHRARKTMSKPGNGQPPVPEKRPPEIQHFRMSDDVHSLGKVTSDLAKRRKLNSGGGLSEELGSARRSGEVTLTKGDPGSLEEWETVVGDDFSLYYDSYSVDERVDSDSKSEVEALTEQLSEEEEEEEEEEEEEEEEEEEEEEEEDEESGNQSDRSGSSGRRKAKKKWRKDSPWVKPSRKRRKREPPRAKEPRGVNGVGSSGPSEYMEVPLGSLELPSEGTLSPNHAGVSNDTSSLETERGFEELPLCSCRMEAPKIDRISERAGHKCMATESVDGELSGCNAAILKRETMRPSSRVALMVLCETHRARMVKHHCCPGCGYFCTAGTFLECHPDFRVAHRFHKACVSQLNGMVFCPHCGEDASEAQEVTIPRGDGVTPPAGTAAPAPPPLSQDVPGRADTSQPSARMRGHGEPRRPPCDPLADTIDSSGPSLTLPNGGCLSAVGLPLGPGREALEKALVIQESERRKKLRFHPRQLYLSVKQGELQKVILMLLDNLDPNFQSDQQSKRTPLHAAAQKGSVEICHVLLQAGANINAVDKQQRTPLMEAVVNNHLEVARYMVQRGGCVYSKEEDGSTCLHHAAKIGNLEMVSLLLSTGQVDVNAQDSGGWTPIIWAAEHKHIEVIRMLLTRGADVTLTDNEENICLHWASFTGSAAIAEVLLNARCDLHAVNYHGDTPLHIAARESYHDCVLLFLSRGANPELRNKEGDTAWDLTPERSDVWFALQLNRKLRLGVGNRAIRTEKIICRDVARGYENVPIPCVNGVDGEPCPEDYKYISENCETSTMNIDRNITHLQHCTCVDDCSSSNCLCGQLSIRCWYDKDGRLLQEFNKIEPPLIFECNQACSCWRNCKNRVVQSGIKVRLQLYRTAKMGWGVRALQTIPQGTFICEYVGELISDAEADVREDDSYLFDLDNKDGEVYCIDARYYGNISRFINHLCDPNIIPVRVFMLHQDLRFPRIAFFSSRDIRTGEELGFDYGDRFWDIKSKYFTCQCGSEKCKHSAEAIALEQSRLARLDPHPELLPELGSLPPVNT
Procedure, shortened: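 Signal arises when biotinylated H3K9 peptide, once monomethylated, bridges streptavidin donor and antibody-captured acceptor beads. Enzyme at 20 nM was preincubated 15 min with test compounds; peptide 500 nM and SAM 20 uM then reacted for 2 h.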
% is scaled to controls: 0 for no effect and ±100 for the full control effect; potency is read from the fitted curve at half-maximal effect; tags tell the direction and shape of the fitted curve.
Also: nearly all actives have a fitted effect of over 75% in size.

Row | Compound | Potency | activity, negative = inhibition
1 | COc1ccc(CN(C(=O)CNC(=O)c2ccco2)C(C(=O)NCC2CCCO2)c2ccc(OC)c(OC)c2)cc1 (centres undefined) | inactive | 
2 | Cc1csc2nc(COC(=O)c3cccc(NC(=O)COc4ccc(Cl)cc4)c3)cc(=O)n12 |  | inactive: 2.21% [at 12.7 µM]
3 | Cc1cccc(C(=O)OCC(=O)N(C)C(c2ccccc2)c2ccccc2)c1[N+](=O)[O-] | inconclusive: 1 µM [inhibitor, partial curve, poor fit] | 
4 | CCCN(CCC)C(=O)Cn1c(=O)n(-c2cccc(OC)c2)c(=O)c2c3c(sc21)CCCC3 | inactive | 
5 | Cc1nc2nc(CSc3ccc(Cl)cc3)cc(=O)n2[nH]1 | inconclusive: 56.2 µM [inhibitor, partial curve, poor fit] | 
6 | CC1=C(C)CS(=O)N(c2ccc(S(N)(=O)=O)cc2)C1 (centres undefined) |  | inconclusive: -78% [inhibitor]
7 | CCN(CC)c1nc(-c2cccc(OC)c2O)nc2ccccc12 | inconclusive: 25.1 µM [inhibitor, single point] | 
8 | O=C(NC12CC3CC(CC(C3)C1)C2)c1ccc(N2CCNCC2)c([N+](=O)[O-])c1 | inactive | 
9 | Cc1sc2c(c1C)c(=O)n(-c1ccccc1)c1nnc(C)n21 | inconclusive: 79.4 µM [inhibitor, single point] | 
10 | O=C(O)c1cc2c(ccc3ccccc32)oc1=O | inconclusive: 39.8 µM [inhibitor, single point] | 
11 | O=C(O)COCC(=O)N1CCCN(c2nccc(C(F)(F)F)n2)CC1 | inconclusive: 1.41 µM [inhibitor, partial curve, poor fit] | 
12 | COc1ccc(NC(=O)C(CC(C)C)NC(=O)c2ccccc2C)cn1 (centres undefined) | inconclusive: 70.8 µM [inhibitor, single point] | 
13 | Cc1cc(C)cc(NC(=O)CSc2n[nH]c(-c3cccnc3)n2)c1 | inactive | 
14 | COc1ccc(OC)c(NC(=O)Nc2cc(NC(=O)Nc3cc(OC)ccc3OC)c(C)nc2C)c1 | inactive | 
15 | COc1cc2c(cc1OC)C(c1ccc(F)cc1)N(c1cccc(C#N)c1)C(=O)C2 (centres undefined) | inactive | 
16 | Cc1ccc2nc(N(CCCN(C)C)C(=O)c3ccc(S(=O)(=O)N4CCc5ccccc5C4)cc3)sc2c1 | active: 70.8 µM | 
17 | Cc1ccsc1C(=O)N1CCCC(CO)(Cc2ccccc2)C1 (centres undefined) | inactive | 
18 | Nc1nc(Sc2ccc([N+](=O)[O-])cc2[N+](=O)[O-])n[nH]1 | inconclusive: 70.8 µM [inhibitor, partial curve, poor fit] | 
19 | COc1ccc(CCN(Cc2cccs2)S(=O)(=O)c2ccc(-n3cnnn3)c(OC)c2)cc1OC |  | inactive: -2.4% [at 12.7 µM]
